The target in assay [1] is T1, biotinylated-AviTag-FICD^H363A (human) (UniProt Q9BVA6).
T1 sequence (chain, biotin on the AviTag): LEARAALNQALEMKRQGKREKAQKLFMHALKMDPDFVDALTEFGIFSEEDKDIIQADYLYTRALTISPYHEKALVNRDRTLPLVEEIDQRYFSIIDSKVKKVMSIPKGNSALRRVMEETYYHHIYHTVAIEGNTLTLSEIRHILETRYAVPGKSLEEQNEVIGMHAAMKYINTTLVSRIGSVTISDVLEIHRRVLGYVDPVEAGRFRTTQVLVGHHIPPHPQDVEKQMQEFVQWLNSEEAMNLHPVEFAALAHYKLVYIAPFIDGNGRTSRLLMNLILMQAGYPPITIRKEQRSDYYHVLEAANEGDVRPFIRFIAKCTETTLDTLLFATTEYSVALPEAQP
As to the kind of experiment: BLI; 3 nM biotinylated-AviTag-FICD^H363A incubated 10 min at 25°C with 300 nM FICD^H363A, hetero-labelled dimers loaded on streptavidin biosensors; dissociation into HKTx with or without 5 mM nucleotide; signal of sensors incubated with FICD^L258D-H363A subtracted; dimer to monomers; both purified. In general terms: In BLI a coated tip is dipped into the sample, and binding shifts an interference pattern.

The chains behind the UniProt entries cited, without tags or fusion partners. Where a name states a change or a piece, a line headed by the entry shows the natural chain unless it says otherwise. A line that says so, or that is headed by a name, gives the form on record, which may keep a tag or linker.
biotinylated-AviTag-haBiP^T229A-V461F (G3I8R9, form named): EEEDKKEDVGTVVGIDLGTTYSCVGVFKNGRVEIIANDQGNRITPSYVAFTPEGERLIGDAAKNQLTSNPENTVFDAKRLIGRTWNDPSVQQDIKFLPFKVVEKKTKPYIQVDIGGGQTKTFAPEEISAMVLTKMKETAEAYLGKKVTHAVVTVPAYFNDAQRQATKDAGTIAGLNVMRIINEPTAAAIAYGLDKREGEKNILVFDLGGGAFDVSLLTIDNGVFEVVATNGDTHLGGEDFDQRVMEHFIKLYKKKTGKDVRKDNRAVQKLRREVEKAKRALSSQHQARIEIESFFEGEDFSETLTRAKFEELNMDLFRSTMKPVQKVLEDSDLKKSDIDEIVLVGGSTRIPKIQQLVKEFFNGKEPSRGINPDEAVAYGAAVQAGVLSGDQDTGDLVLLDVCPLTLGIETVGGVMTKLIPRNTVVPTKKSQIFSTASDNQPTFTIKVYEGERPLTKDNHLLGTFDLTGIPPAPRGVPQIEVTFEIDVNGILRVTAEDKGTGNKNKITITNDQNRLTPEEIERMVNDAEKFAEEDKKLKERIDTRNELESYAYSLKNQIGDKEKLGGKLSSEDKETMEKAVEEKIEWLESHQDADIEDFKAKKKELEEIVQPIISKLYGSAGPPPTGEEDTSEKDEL

In assay [2] the target is biotinylated-AviTag-haBiP^T229A-V461F (Chinese hamster) (UniProt G3I8R9). Nature of the assay: condition: only BiP not pre-saturated with ATP (FICD at 250 nM); BLI; as a6 but the immobilised BiP^T229A-V461F left nucleotide-free (not pre-saturated with ATP); FICD at 250 nM; both purified.
Assay [3] concerns the target wild-type FICD co-expressed in CHO-K1 cells as His6-AviTag-FICD and FLAG-FICD (human) (UniProt Q9BVA6). Nature of the assay: pull-down + co-IP; CHO-K1 cells co-transfected with His6-AviTag-FICD and FLAG-FICD (wild type or L258D) and BirA, 50 μM biotin; lysates on streptavidin Dynabeads or anti-FLAG M2 affinity gel, 60-90 min at 4°C, RIPA washes; detection with IRDye 800CW streptavidin or anti-FLAG.

Assay [4] concerns the target FICD^L258D co-expressed in CHO-K1 cells as His6-AviTag-FICD^L258D and FLAG-FICD^L258D (human) (UniProt Q9BVA6). The description is as above.
In assay [5] the target is Oregon Green-labelled FICD^L258D-NC (monomeric control carrying an N-terminal cysteine) (human) (UniProt Q9BVA6). Nature of the assay: AUC; fluorescence-detected sedimentation velocity; Oregon Green-labelled FICD from 1.6 μM to 31 pM; 50 mM HEPES-KOH pH 7.4, 150 mM KCl, 10 mM MgCl2, 1 mM CaCl2, 0.3 mM TCEP, 0.1% Tween-20, 0.15 mg/ml BSA; 45,000 rpm, 20°C; monomer-dimer isotherm of signal-averaged s; dimer to monomers; both ….

These are yes or no findings as the source states them, for the method shown. For some assays here: In cells and extracts the contact can be indirect. Some binding calls cover weakened binding; strength is not graded here. For some assays here: Where a sequence is shown, tags or fusion partners need not be part of it.

From PMC6826200 come the findings set out here.

B1: catalytically inactive, dimeric FICD^H363A (residues 104-445) (domain or fragment, UniProt Q9BVA6 104-445)
chain: LEARAALNQALEMKRQGKREKAQKLFMHALKMDPDFVDALTEFGIFSEEDKDIIQADYLYTRALTISPYHEKALVNRDRTLPLVEEIDQRYFSIIDSKVKKVMSIPKGNSALRRVMEETYYHHIYHTVAIEGNTLTLSEIRHILETRYAVPGKSLEEQNEVIGMHAAMKYINTTLVSRIGSVTISDVLEIHRRVLGYVDPVEAGRFRTTQVLVGHHIPPHPQDVEKQMQEFVQWLNSEEAMNLHPVEFAALAHYKLVYIAPFIDGNGRTSRLLMNLILMQAGYPPITIRKEQRSDYYHVLEAANEGDVRPFIRFIAKCTETTLDTLLFATTEYSVALPEAQP
On to B1, for which, in assay [1], the binding entry is recorded as “binds”.

B2: catalytically inactive, monomeric FICD^L258D-H363A (residues 104-445) (domain or fragment, UniProt Q9BVA6 104-445)
chain: LEARAALNQALEMKRQGKREKAQKLFMHALKMDPDFVDALTEFGIFSEEDKDIIQADYLYTRALTISPYHEKALVNRDRTLPLVEEIDQRYFSIIDSKVKKVMSIPKGNSALRRVMEETYYHHIYHTVAIEGNTLTLSEIRHILETRYAVPGKSDEEQNEVIGMHAAMKYINTTLVSRIGSVTISDVLEIHRRVLGYVDPVEAGRFRTTQVLVGHHIPPHPQDVEKQMQEFVQWLNSEEAMNLHPVEFAALAHYKLVYIAPFIDGNGRTSRLLMNLILMQAGYPPITIRKEQRSDYYHVLEAANEGDVRPFIRFIAKCTETTLDTLLFATTEYSVALPEAQP
Turning to B2, in assay [2], the binding result is given as “no binding”.

B3: wild-type FICD co-expressed in CHO-K1 cells as His6-AviTag-FICD and FLAG-FICD (enzyme, UniProt Q9BVA6 1-458)
chain: MMLIPMASVMAVTEPKWVSVWSRFLWVTLLSMVLGSLLALLLPLGAVEEQCLAVLKGLYLLRSKPDRAQHAATKCTSPSTELSITSRGATLLVAKTKASPAGKLEARAALNQALEMKRQGKREKAQKLFMHALKMDPDFVDALTEFGIFSEEDKDIIQADYLYTRALTISPYHEKALVNRDRTLPLVEEIDQRYFSIIDSKVKKVMSIPKGNSALRRVMEETYYHHIYHTVAIEGNTLTLSEIRHILETRYAVPGKSLEEQNEVIGMHAAMKYINTTLVSRIGSVTISDVLEIHRRVLGYVDPVEAGRFRTTQVLVGHHIPPHPQDVEKQMQEFVQWLNSEEAMNLHPVEFAALAHYKLVYIHPFIDGNGRTSRLLMNLILMQAGYPPITIRKEQRSDYYHVLEAANEGDVRPFIRFIAKCTETTLDTLLFATTEYSVALPEAQPNHSGFKETLPVKP
modifications: biotin on the AviTag of the His6-AviTag copy
With B3, the binding entry in assay [3] is on record as “binds”.

B4: FICD^L258D co-expressed in CHO-K1 cells as His6-AviTag-FICD^L258D and FLAG-FICD^L258D (enzyme, UniProt Q9BVA6 1-458)
chain: MMLIPMASVMAVTEPKWVSVWSRFLWVTLLSMVLGSLLALLLPLGAVEEQCLAVLKGLYLLRSKPDRAQHAATKCTSPSTELSITSRGATLLVAKTKASPAGKLEARAALNQALEMKRQGKREKAQKLFMHALKMDPDFVDALTEFGIFSEEDKDIIQADYLYTRALTISPYHEKALVNRDRTLPLVEEIDQRYFSIIDSKVKKVMSIPKGNSALRRVMEETYYHHIYHTVAIEGNTLTLSEIRHILETRYAVPGKSDEEQNEVIGMHAAMKYINTTLVSRIGSVTISDVLEIHRRVLGYVDPVEAGRFRTTQVLVGHHIPPHPQDVEKQMQEFVQWLNSEEAMNLHPVEFAALAHYKLVYIHPFIDGNGRTSRLLMNLILMQAGYPPITIRKEQRSDYYHVLEAANEGDVRPFIRFIAKCTETTLDTLLFATTEYSVALPEAQPNHSGFKETLPVKP
modifications: biotin on the AviTag of the His6-AviTag copy
B4: the binding result in assay [4] is reported as “no binding”.

B5: Oregon Green-labelled FICD^L258D-NC (monomeric control carrying an N-terminal cysteine) (domain or fragment, UniProt Q9BVA6 104-445)
chain: CLEARAALNQALEMKRQGKREKAQKLFMHALKMDPDFVDALTEFGIFSEEDKDIIQADYLYTRALTISPYHEKALVNRDRTLPLVEEIDQRYFSIIDSKVKKVMSIPKGNSALRRVMEETYYHHIYHTVAIEGNTLTLSEIRHILETRYAVPGKSDEEQNEVIGMHAAMKYINTTLVSRIGSVTISDVLEIHRRVLGYVDPVEAGRFRTTQVLVGHHIPPHPQDVEKQMQEFVQWLNSEEAMNLHPVEFAALAHYKLVYIHPFIDGNGRTSRLLMNLILMQAGYPPITIRKEQRSDYYHVLEAANEGDVRPFIRFIAKCTETTLDTLLFATTEYSVALPEAQP
modifications: Oregon Green 488 on the N-terminal cysteine (labelling efficiency 9.6%)
On to B5, for which the binding entry in assay [5] is “no binding”.
